In publication PMC4336329 (PLoS ONE, 2015):
The campaign covered roughly 310,000 compounds. About 14,000 (4.5%) showed an effect of 50% or more. Effects have a minus sign here. Some of the results follow.

molecular target: human ether-à-go-go-related gene (hERG) potassium channel (human, UniProt Q12809); experiment: primary screen, population patch clamp on CHO cells stably expressing hERG
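Note: peak tail current of the secondary pulse compared with the same well before compound.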

Chain of human ether-à-go-go-related gene (hERG) potassium channel (Q12809 whole entry, looked up): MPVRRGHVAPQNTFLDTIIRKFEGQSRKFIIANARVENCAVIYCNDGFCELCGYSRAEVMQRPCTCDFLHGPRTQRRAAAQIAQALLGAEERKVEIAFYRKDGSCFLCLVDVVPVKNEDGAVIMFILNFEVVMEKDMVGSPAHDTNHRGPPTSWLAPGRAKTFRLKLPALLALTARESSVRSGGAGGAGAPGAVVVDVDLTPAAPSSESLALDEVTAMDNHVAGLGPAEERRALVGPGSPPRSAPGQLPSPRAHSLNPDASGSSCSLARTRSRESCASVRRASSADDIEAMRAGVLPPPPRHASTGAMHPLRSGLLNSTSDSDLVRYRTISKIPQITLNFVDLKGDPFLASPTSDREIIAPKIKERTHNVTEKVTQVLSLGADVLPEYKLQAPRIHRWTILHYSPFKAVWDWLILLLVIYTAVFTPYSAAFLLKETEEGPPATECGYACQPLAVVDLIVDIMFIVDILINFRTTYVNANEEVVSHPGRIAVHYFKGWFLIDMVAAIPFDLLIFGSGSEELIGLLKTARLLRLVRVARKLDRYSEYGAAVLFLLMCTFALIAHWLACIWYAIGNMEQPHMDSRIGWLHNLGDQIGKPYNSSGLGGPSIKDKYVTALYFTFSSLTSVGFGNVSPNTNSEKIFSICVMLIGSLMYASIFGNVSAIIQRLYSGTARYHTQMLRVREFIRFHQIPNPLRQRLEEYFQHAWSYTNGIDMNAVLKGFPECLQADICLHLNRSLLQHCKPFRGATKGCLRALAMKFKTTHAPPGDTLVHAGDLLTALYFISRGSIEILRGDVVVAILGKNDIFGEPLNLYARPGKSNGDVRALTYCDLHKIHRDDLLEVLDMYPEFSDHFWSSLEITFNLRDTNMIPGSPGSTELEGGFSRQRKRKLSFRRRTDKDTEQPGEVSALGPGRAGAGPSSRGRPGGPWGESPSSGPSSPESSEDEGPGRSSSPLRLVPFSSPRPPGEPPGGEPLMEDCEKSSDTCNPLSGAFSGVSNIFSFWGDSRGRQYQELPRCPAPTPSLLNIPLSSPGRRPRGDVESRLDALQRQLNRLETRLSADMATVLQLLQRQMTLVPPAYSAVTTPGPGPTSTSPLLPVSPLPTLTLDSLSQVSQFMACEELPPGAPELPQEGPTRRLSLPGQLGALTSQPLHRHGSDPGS

Row | SMILES | hERG current change (%, negative = inhibition) at 10uM [%]
1 | O=C(CCCc1ccccc1)NCc1ccccc1Cl | -7.08
2 | O=C1C=C(O)c2cccc3cccc1c23 | 28.3
3 | Cc1cc(C)cc(Nc2ncnc3nc[nH]c23)c1 | 0.215
4 | CN1CCN(c2ccccc2NC(=O)c2ccc(-c3ccccc3[N+](=O)[O-])o2)CC1 | -67.9
5 | O=C(Nc1ccccc1C(=O)NCc1ccccc1)c1ccccc1Br | -1.98
6 | Cn1c(=O)c2cc(S(=O)(=O)NCCC(=O)NCCc3ccc(Cl)cc3)ccc2n(C)c1=O | -33.5
7 | COc1ccc(OC)c(C(C(=O)NCc2ccco2)N(C(=O)Cn2nnc3ccccc32)C(C)C)c1 (stereo not shown) | -27.6
8 | COc1cccc(NC(=O)C2CC2(c2cccc(OC)c2)c2cccc(OC)c2)c1 (stereo not shown) | 4.92
9 | Cc1ccc(NC(=O)c2cccc(S(=O)(=O)N3CCc4ccccc4C3)c2)nc1 | -38.5
10 | Cc1ccccc1NC(=O)CN1C(=O)S/C(=C\c2cccn2-c2cccc(C(=O)O)c2)C1=O | 15.8
11 | COc1ccccc1-n1cnnc1SCC(=O)Nc1ccccc1 | 7.5
12 | Cc1cc(C)c(S(=O)(=O)Nc2ccc3c4c(cccc24)CC3)c(C)c1 | 7.51
13 | c1nc(NCC2(N3CCOCC3)CCCCC2)c2ccsc2n1 | -73.3
14 | CCOC(=O)C(C(=O)NCCCN1CCOCC1)C1CCCCC1 (stereo not shown) | 9.9
15 | CCc1ccc(C(=O)C(C)OC(=O)Cn2cnc3c2c(=O)n(C)c(=O)n3C)cc1 (stereo not shown) | -1.98
16 | Cc1c(C(=O)OCC(=O)Nc2c(C)n(C)n(-c3ccccc3)c2=O)cccc1[N+](=O)[O-] | -6.66
17 | O.O=C(/C=C/c1ccc(O)c(O)c1)O[C@@H]1C[C@](O)(C(=O)O)C[C@@H](O)[C@H]1O | 17.9
18 | CN1CCN(C(=O)Cn2c(C(F)(F)F)nc3ccccc32)CC1 | 14.7
19 | O=C(O)CCCC(=O)NNc1ncnc2ccccc12 | 15.3
20 | COc1ccc(N/C(N)=N/c2nc(CSc3nnc(C)s3)cc(=O)[nH]2)cc1 | 19.2
21 | O=c1c([N+](=O)[O-])cccn1Cc1ccc(F)cc1Cl | 2.92
22 | O=C(NC1(C(F)(F)F)NC(=O)N(C2CCCCC2)C1=O)c1cccs1 (stereo not shown) | -1.98

Row | SMILES | hERG current change (%, negative = inhibition) at 10uM [%]
23 | COCCCNC(=O)Cn1cnc2sc(C)c(S(=O)(=O)N3CCN(c4ccccc4OC)CC3)c2c1=O | -0.312
24 | NC(=S)Nc1ccc2cc[nH]c2c1 | -1.75
25 | O=C(Nc1ccc(S(=O)(=O)N2CCCCC2)cc1)C1CCN(C(=O)c2ccco2)CC1 | -24.7
26 | C=CCn1c(=O)c2ccccc2n2c(SCc3nnc(-c4ccccc4Br)o3)nnc12 | -18.8
27 | CCc1nn(CC(=O)O)c(=O)c2ccccc12 | 15.5
28 | Cc1ccc(S(=O)(=O)N(C)C)cc1NC(=O)c1sccc1Cl | 6.02
29 | O=C(NC1c2ccccc2-c2ccccc21)c1ccccc1 | 7.92
30 | Cc1ccc(-c2csc(NC(=O)CN3CCC(C(N)=O)CC3)n2)cc1 | 8.38
31 | CCCn1c2ccccc2c2cnn(CC(=O)N3CCN(C4CCCCC4)CC3)c(=O)c21 | -72.6
32 | N#Cc1c(-c2ccccc2Cl)c2c([nH]c1=O)-c1ccccc1OC2 | 16.4
33 | CCc1ccc(OCCNC(=O)c2cc(SC)ccc2Cl)cc1 | -9.28
34 | COc1ccc(/C(N)=N/OC(=O)CCC2CCCC2)cc1 | 31.5
35 | CCOC(=O)c1oc2cccc(O)c2c1CN1CCOCC1.Cl | -17.1
36 | O=[N+]([O-])c1ccc(N2CCN(c3ccccc3F)CC2)c(S(=O)(=O)N2CCOCC2)c1 | -5.12
37 | COc1ccc(-c2nc(CN3CCN(c4ncccn4)CC3)c(C)o2)cc1C | -21.1
38 | O=C(CSc1nnnn1C1CCCCC1)Nc1ccc(F)cc1 | 6.63
39 | COc1ccccc1/C=C/CN1CCN(Cc2ccc(C)o2)C(CCO)C1 (stereo not shown) | -12
40 | COc1ccc(Cc2nnc(NC(=O)c3ccccc3[N+](=O)[O-])s2)cc1 | 10.2
41 | OC1CCN(CC(O)C(F)(F)F)CC1 (stereo not shown) | 15.9
42 | Cc1cc(C)c2[nH]c(=O)c(CN(Cc3cccs3)C(=S)NCC3CCCO3)cc2c1 (stereo not shown) | -8.17
43 | COc1cccc(N2C(=O)CC(N3CCN(S(=O)(=O)c4ccccc4)CC3)C2=O)c1 (stereo not shown) | 6.42
44 | Cn1c(O)c(N=NC(=O)CNC(=O)c2ccccc2)c2ccccc21 | -5.92

Row | SMILES | hERG current change (%, negative = inhibition) at 10uM [%]
45 | CC1CCC2CCCCC2N1C(=O)c1cc([N+](=O)[O-])cc([N+](=O)[O-])c1 (stereo not shown) | 2.18
46 | O=C(CN1CCN(c2ccccn2)CC1)N1CC(O)CO1 (stereo not shown) | 17.4
47 | C/C=C/Cn1c(SCc2ccc(C)cc2)nc2c1c(=O)[nH]c(=O)n2C | -2.64
48 | COc1cc(OC)cc(-c2cc(N)n(S(=O)(=O)c3cccc4nsnc34)n2)c1 | -4.1
49 | O=C(O)c1cc(C(=O)C2CCCCC2)c[nH]1 | 21
50 | O=C(NCc1ccccn1)/C(=C/c1ccco1)NC(=O)c1ccccc1 | -10
51 | COCCNC(=O)CSc1nc2ccccc2c2nc(C)nn12 | -11.7
52 | NC(=O)C1CCN(CC(=O)NC2CCCc3ccccc32)CC1 (stereo not shown) | 12.5
53 | NNC(=O)CCn1nnc2ccccc21 | 21.6
54 | CCOC(=O)c1c2c(c(=S)n(-c3ccccc3)c1N)CCC2 | 8.1
55 | CCOc1ccc(C2C3=C(CCCC3=O)OC(N)=C2[N+](=O)[O-])cc1 (stereo not shown) | 10.9
56 | NS(=O)(=O)c1cccc(NC(=O)CCSc2ccc(Cl)cc2)c1 | 9.47
57 | CCc1n[nH]c(=S)n1/N=C/c1cc(Br)c(OC)cc1OC | 39.5
58 | O=C(Cn1cccc1C(=O)c1ccccc1)NCc1cccs1 | 2.4
59 | O=C(O)Cc1ccc(NC(=O)Nc2cccc(Cl)c2)cc1 | 9.19
60 | CCNCCNc1ccc([N+](=O)[O-])c2cccnc12 | -22.8
61 | Cc1cc(=O)oc2cc(O)ccc12 | 20
62 | O=C(NCCN1C(=O)S/C(=C\c2ccc(Cl)c(Cl)c2)C1=O)c1ccc2c(c1)C(=O)N(Cc1ccncc1)C2=O | -0.0661
63 | O=C(Nc1cccc(Cl)c1)Nc1ccccc1NS(=O)(=O)c1cccs1 | 24
64 | Cc1ccc(N2CC(C(=O)NC3CCC(C)CC3)CC2=O)cc1 (stereo not shown) | 18.4
65 | COc1ccc2[nH]cc(/C=C/C(=O)c3ccccc3)c2c1 | 17.6
66 | CC1(NC(=O)c2cc(S(=O)(=O)N3CCCCC3)ccc2Cl)CCS(=O)(=O)C1 (stereo not shown) | -0.979

Row | SMILES | hERG current change (%, negative = inhibition) at 10uM [%]
67 | O=C(CSc1cn(CCNC(=O)c2c(F)cccc2F)c2ccccc12)NCC1CCCO1 (stereo not shown) | 5.3
68 | C=CCNC(=S)Nc1ccc2nc(C)c(C)nc2c1 | 0.403
69 | CC(=O)n1c(-c2ccccc2)c(-c2ccccc2)n(C)c1=O | 4.06
70 | Cn1nc(CC(=O)NC2CCCCCC2)c2ccccc2c1=O | -0.318
71 | Cl.O=C(CN1CCCC1)Nc1ccc(Br)cc1 | -1.25
72 | CC1CN(O)C2CCc3nonc3C12O (stereo not shown) | 2.52
73 | CCOc1ccccc1N(CC(=O)N1CCC(C)CC1)S(=O)(=O)c1ccc(C)cc1 | -19.6
74 | Nc1nc(CN2CCN(c3cccc(Cl)c3)CC2)nc(N2CCCc3ccccc32)n1 | -6.96
75 | O=C(NC(=S)Nc1ccc2[nH]c(=O)[nH]c2c1)c1cccc(F)c1 | 19
76 | Cc1ccc(CNC(=O)CNC(=O)[C@@H]2Cc3ccccc3CN2)cc1 | -4.45
77 | COC(=O)c1ccc(CNC(=O)CNc2cc(C(F)(F)F)ccc2N2CCOCC2)cc1 | 3.34
78 | CN(C)c1ccc(C(CNS(=O)(=O)c2ccc(F)cc2)c2c[nH]c3ccccc23)cc1 (stereo not shown) | 17.3
79 | O=C(Cn1nc(-c2cccc(Cl)c2)ccc1=O)Nc1ccc(C(=O)NC2CC2)cc1 | 2.44
80 | O=C(Nc1c(C(=O)Nc2ccc3c(c2)OCCO3)cnn1-c1ccccc1Cl)c1ccco1 | 11.1
81 | O=C(O)CCCC(=O)NCc1c(Cl)cccc1Sc1ccc(Cl)cc1 | 5.18
82 | CCCCc1c(O)nc(SCC(=O)NC(C)(C)C)n(-c2ccccc2C)c1=O | 13.8
83 | CCSc1ccccc1C(=O)Nc1cccnc1 | -5.83
84 | Cc1cc(OCc2cc(C(=O)N3CCN(C)C(=O)[C@@H]3C)no2)cc(C)c1Cl | -36.2
85 | CC1(C)Nc2ccccc2N(Cc2ccc([N+](=O)[O-])cc2)C1=O | -49.7
86 | Cc1ccc(-c2nn(CC(=O)NC(C)c3ccccc3)c(=O)c3ccccc23)cc1 (stereo not shown) | 12.2
87 | O=C(O)C(=O)O.OCCNCCCCOc1ccc(OCc2ccccc2)cc1 | -32.1
88 | COc1cc(/C=C(/C#N)C(=O)Nc2ccc(Cl)cc2)ccc1Oc1nc(Cl)ncc1F | 13.3
